PubChem BioAssay (NCATS)
This list was built around the results that the source calls inconclusive (neither active nor inactive); the mix of calls is not that of the screen. For some of these results: Potencies of inconclusive entries are doubtful fits and often do not repeat. Activity calls are given as the source filed them. Calls follow the shape of the dose curve; as a rule, active = well fitted curve in the direction sought with a large enough effect; inconclusive = small, poorly fitted or top-dose-only effect, or another doubt; inactive = no such curve, though single readings can be large; an effect the other way counts as inactive or inconclusive.

Assays:
[1] = P-glycoprotein substrates identified in KB-8-5-11 adenocarcinoma cell line, qHTS therapeutic library screen (AID 1346987); also: nearly all actives have a fitted effect of over 65% in size; also: potency is read from the fitted curve at half-maximal effect
Summary of the method: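 P-gp-mediated resistance screen: KB-8-5-11 cells treated 72 h with compounds in dose-response. CellTiter-Glo viability.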

[2] = system: CRL-7250; assay: Cytotoxic Profiling of Annotated Libraries Using Quantitative High-Throughput Screening (AID 1296008); conditions: Five cell lines viability, CellTiter-Glo ATP luminescence, 48-72 h; max response: hits give low values; also: nearly all actives have a fitted effect of over 60% in size; also: potency is read from the fitted curve at half-maximal effect; as to max response: % is scaled to controls: 0 for no effect and ±100 for the full control effect
Summary of the method: (§1)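 Cytotoxicity was measured as CellTiter-Glo ATP luminescence, read after 10 min at room temperature. Compound treatment of the cells lasted 48 or 72 hr at 37 degrees Celsius in a qHTS format.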

[3] = system: HEK293; assay: as above; conditions: Five cell lines viability, CellTiter-Glo ATP luminescence, 48-72 h; max response: hits give low values
Summary of the method: as §1

[4] = system: C33A; assay: Primary qHTS to identify gynecologic anti-cancer compounds using libraries of approved drugs and bioactive compounds (AID 1345084); conditions: Gynecologic cancer cell panel viability, ATPlite luminescence, 48 h; series mostly up to 57.5 µM; also: nearly all actives have a fitted effect of over 55% in size; also: potency is read from the fitted curve at half-maximal effect; as to activity change, negative = cytotoxicity: % is scaled to controls: 0 for no effect and ±100 for the full control effect
Summary of the method: (§2)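 Cells, 1,000 per well, plated 16 h, then exposed 48 h at 37 C to compounds. Viability by ATPlite luminescence after 15 min at room temperature.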

[5] = system: CAOV3; assay: as above; conditions: Gynecologic cancer cell panel viability, ATPlite luminescence, 48 h; series mostly up to 57.5 µM
Summary of the method: as §2

[6] = system: Hek293T; assay: as above; conditions: Gynecologic cancer cell panel viability, ATPlite luminescence, 48 h, control line for the selectivity index; series mostly up to 57.5 µM
Summary of the method: as §2

[7] = system: JEG-3; assay: as above; conditions: Gynecologic cancer cell panel viability, ATPlite luminescence, 48 h; series mostly up to 57.5 µM
Summary of the method: as §2

[8] = system: OV90; assay: as above; conditions: Gynecologic cancer cell panel viability, ATPlite luminescence, 48 h; series mostly up to 57.5 µM
Summary of the method: as §2

[9] = system: PA-1; assay: as above; conditions: Gynecologic cancer cell panel viability, ATPlite luminescence, 48 h; series mostly up to 57.5 µM
Summary of the method: as §2

[10] = system: SKOV3; assay: as above; conditions: Gynecologic cancer cell panel viability, ATPlite luminescence, 48 h; series mostly up to 57.5 µM
Summary of the method: as §2

[11] = system: Tov-21-G; assay: as above; conditions: Gynecologic cancer cell panel viability, ATPlite luminescence, 48 h; activity change, negative = cytotoxicity: at 57.5 µM (top of the series)
Summary of the method: as §2

[12] = system: WaGa; assay: qHTS assay to identify novel small-molecules to repurpose for Merkel cell carcinoma treatment (AID 1296009); conditions: MCC and control cell lines, CellTiter-Glo viability, 72 h; series mostly up to 46 µM; also: % is scaled to controls: 0 for no effect and ±100 for the full control effect; nearly all actives have a fitted effect of over 60% in size
Summary of the method: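 After compound transfer in DMSO, plates were kept 72 hr at 37 degree celsius. Luminescent ATP signal from CellTiter-Glo served as viability measure, normalized against DMSO and no-cell controls.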

[13] = Primary qHTS for inhibitors of nuclear receptor binding SET domain protein 2 (NSD2) in an isogenic RCH-ACV NSD2 p.E1099K mutant (9B) (AID 1645876); also: nearly all actives have a fitted effect of over 70% in size; also: potency is read from the fitted curve at half-maximal effect
[14] = Primary qHTS for inhibitors of nuclear receptor binding SET domain protein 2 (NSD2) in an RCH-ACV wild type WT cells (2C) (AID 1645877); conditions: activity change, negative = cell killing: at 44.9 µM (top of the series); also: nearly all actives have a fitted effect of over 70% in size; also: potency is read from the fitted curve at half-maximal effect; as to activity change, negative = cell killing: % is scaled to controls: 0 for no effect and ±100 for the full control effect
[15] = Primary fluorescence-based thiol-reactive (MSTI) qHTS assay for identification of artifact compounds. (AID 1845221); also: potency is read from the fitted curve at half-maximal effect;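 also: thiol-reactive compounds lower the probe fluorescence signal; nearly all actives have a fitted effect of over 65% in size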
Summary of the method: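 MSTI probe at 4 uM final in 2% DMSO/PBS pH 7.4; compounds, 1 h at room temperature in dark. Fluorescence Ex/Em 525/598 nm, normalised to Acetyl-MSTI and MSTI, fitted to 4-parameter Hill.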

[16] = system: Es-2; assay: Primary qHTS to identify gynecologic anti-cancer compounds using libraries of approved drugs and bioactive compounds (AID 1345084); conditions: Gynecologic cancer cell panel viability, ATPlite luminescence, 48 h; series mostly up to 57.5 µM; also: nearly all actives have a fitted effect of over 55% in size; also: potency is read from the fitted curve at half-maximal effect; as to activity change, negative = cytotoxicity: % is scaled to controls: 0 for no effect and ±100 for the full control effect
Summary of the method: as §2

[17] = system: HeLa; assay: as above; conditions: Gynecologic cancer cell panel viability, ATPlite luminescence, 48 h; series mostly up to 57.5 µM
Summary of the method: as §2

[18] = system: Zika virus NS2B-NS3 protease (unlinked complex); assay: Primary screen GU Rhodamine qHTS for Zika virus inhibitors: Unlinked NS2B-NS3 protease assay (AID 1347159); also: potency is read from the fitted curve at half-maximal effect; nearly all actives have a fitted effect of over 60% in size
Summary of the method: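 Noncovalent NS2B hydrophilic domain–NS3 protease domain complex (25 nM) preincubated 15 min at room temperature with compounds (up to 114 microM) in 10 mM Tris-HCl pH 8.0, 0.01% Tween 20; 1.5 microM Rhodamine110 substrate added, fluorescence change over 15 min fitted to Hill equation.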

[19] = system: CASKI; assay: Primary qHTS to identify gynecologic anti-cancer compounds using libraries of approved drugs and bioactive compounds (AID 1345084); conditions: Gynecologic cancer cell panel viability, ATPlite luminescence, 48 h; activity change, negative = cytotoxicity: at 57.5 µM (top of the series); also: nearly all actives have a fitted effect of over 55% in size; also: potency is read from the fitted curve at half-maximal effect
Summary of the method: as §2
Tags tell the direction and shape of the fitted curve.

Cc1cc(CS(=O)(=O)c2ccccc2)cc(OCc2ccc(CN3CCC[C@@H]3CO)cc2)c1
active: Potency [8] 25.1 µM
inconclusive: Potency [1] 5.8 µM [inhibitor, partial curve] | Potency [2] 29.1 µM [inhibitor, single point] | Potency [3] 25.9 µM [inhibitor, partial curve, poor fit] | Potency [4] 35.5 µM [cytotoxic, single point] | Potency [5] 39.8 µM [cytotoxic, single point] | Potency [6] 39.8 µM [cytotoxic, single point] | Potency [7] 28.2 µM [rising, single point] | Potency [9] 35.5 µM [cytotoxic, partial curve, poor fit] | Potency [10] 28.2 µM [cytotoxic, partial curve, poor fit] | Potency [11] 39.8 µM [cytotoxic, single point]

NC(Cc1ccc(Cl)cc1)C(=O)O (configuration not stated)
inactive: max response [2] -4.47% | outcome [3] | activity change, negative = cytotoxicity [12] 12.8% [at 0.597 µM]

CC(=O)c1ccc2c(c1)[C@H](NC(=O)c1ccc(F)c(Cl)c1)[C@H](O)C(C)(C)O2
inconclusive: Potency [3] 11.6 µM [inhibitor, partial curve, poor fit] | Potency [5] 39.8 µM [rising, single point]
inactive: Potency [13] | Potency [14] | max response [2] -9.32%

C=CC1(C)CC=C2C(CCC3C(C)(C(=O)O)CCCC23C)C1 (configuration not stated)
inactive: max response [2] 4.68% | max response [3] -4.6% | Potency [5]
inconclusive: Potency [14] 29 µM [inhibitor, single point]

COc1cc2c(cc1O)C1(Cc3ccc4c(c3C1=O)OCO4)N(C)CC2 (configuration not stated)
inconclusive: Potency [15] 5.85 µM [inhibitor, partial curve]
inactive: Potency [13] | max response [2] 3.99% | outcome [3] | Potency [16] | Potency [17]

CCCCN(CCCC)C(=O)CN1C[C@H](c2ccc3c(c2)OCO3)[C@@H](C(=O)O)[C@@H]1c1ccc(OC)cc1
inactive: Potency [5]
inconclusive: Potency [2] 33.1 µM [inhibitor, single point] | Potency [3] 37.1 µM [inhibitor, single point] | Potency [10] 8.91 µM [cytotoxic, single point]
active: Potency [18] 28.2 µM

O=C(O)Cc1cn(C2OCC(O)C(O)C2O[C@@H]2O[C@H](CO)[C@@H](O)[C@H](O)[C@H]2O)c2ccccc12 (some centres not stated)
inconclusive: Potency [2] 10 µM [inhibitor, single point]
inactive: Potency [13] | max response [3] 0.817% | Potency [19] | Potency [10]

CCC/C=C/c1cc2c(C=O)c(O)c(CC=C(C)C)cc2o1
inactive: Potency [5] | Potency [6] | Potency [10]
inconclusive: Potency [13] 23 µM [inhibitor, single point] | Potency [14] 23 µM [inhibitor, single point] | Potency [2] 29.1 µM [inhibitor, single point] | Potency [3] 25.9 µM [inhibitor, single point]
active: Potency [18] 7.94 µM | Potency [15] 23.8 µM

O=C(Nc1ccc(S(=O)(=O)Nc2ccccc2Cl)c(Cl)c1)c1ccccn1
inconclusive: Potency [18] 14.1 µM [inhibitor, full curve] | Potency [5] 14.1 µM [rising, partial curve, poor fit]
inactive: Potency [1] | Potency [15] | max response [2] 0.561% | max response [3] -10.8%

CCNc1nc(Nc2cc(F)c(C(=O)N3CCOCC3)cc2OC)ncc1C(F)(F)F
inconclusive: Potency [13] 20.6 µM [inhibitor, single point] | Potency [14] 7.28 µM [inhibitor, partial curve] | Potency [2] 18.4 µM [inhibitor, single point] | Potency [3] 23.1 µM [inhibitor, single point] | Potency [9] 35.5 µM [cytotoxic, single point] | Potency [11] 20 µM [cytotoxic, single point]
active: Potency [1] 9.2 µM
inactive: Potency [5] | Potency [8] | Potency [10]

C=C1C(=O)OC2CC(C)=C(C(C)CCCO[C@@H]3O[C@H](CO)[C@@H](O)[C@H](O)[C@H]3O)C(O)C12 (some centres not stated)
inactive: Potency [14] | max response [2] -0.682% | outcome [3] | Potency [5]
inconclusive: Potency [18] 35.5 µM [inhibitor, partial curve]

O=C(NCCCN1CCC2(CC1)OCc1ccccc12)[C@H]1CCCN1Cc1ccccc1
inactive: outcome [2] | Potency [5] | Potency [16]
inconclusive: Potency [13] 20.5 µM [inhibitor, single point] | Potency [14] 11.5 µM [inhibitor, partial curve] | Potency [3] 29.1 µM [inhibitor, single point]

COc1cc(N2CCOCC2)ccc1NC(=O)c1csc(-c2cccnc2)n1
inconclusive: Potency [13] 5.78 µM [inhibitor, partial curve] | Potency [14] 2.9 µM [inhibitor, full curve] | Potency [2] 8.2 µM [inhibitor, partial curve] | Potency [3] 7.31 µM [inhibitor, partial curve] | Potency [5] 22.4 µM [cytotoxic, partial curve, poor fit] | Potency [8] 39.8 µM [cytotoxic, single point] | Potency [9] 7.94 µM [cytotoxic, partial curve, poor fit] | Potency [10] 17.8 µM [cytotoxic, partial curve, poor fit] | Potency [11] 15.8 µM [cytotoxic, partial curve]
active: Potency [1] 11.6 µM

C[C@@H]1CC[C@]2(C(=O)OC3OC(CO)C(O)C(O)C3O)CC[C@]3(C)C(=CCC4[C@@]5(C)CC[C@H](O)[C@](C)(C(=O)O)C5CC[C@]43C)C2[C@]1(C)O (some centres not stated)
inactive: Potency [15] | outcome [2] | max response [3] -6.18%
inconclusive: Potency [5] 0.501 µM [rising, full curve, poor fit]

O=C(c1ccc(OC(F)F)c(C#Cc2ccccn2)c1)N1Cc2cccnc2C1
inactive: max response [2] 4.31%
inconclusive: Potency [3] 29.1 µM [inhibitor, single point] | Potency [16] 10 µM | Potency [17] 6.31 µM | Potency [9] 316 µM | Potency [10] 7.08 µM [rising, single point] | Potency [11] 2.51 µM

C=C[C@H](/C=C\c1ccc(O)cc1)c1ccc(O)cc1
inconclusive: Potency [1] 29.1 µM [inhibitor, single point] | Potency [14] 23 µM [inhibitor, single point] | Potency [3] 23.1 µM [inhibitor, single point] | Potency [9] 39.8 µM [cytotoxic, single point]
inactive: Potency [15] | max response [2] -3.27% | Potency [5]

CC1=CC(=O)C2C(C)(C)CCC[C@]2(C)[C@H]1CC[C@H](C)CC(=O)O (some centres not stated)
inconclusive: Potency [5] 3.55 µM [cytotoxic, single point]
inactive: Potency [1] | max response [2] -2.16% | max response [3] -12.7% | Potency [16]

COC(=O)C1=CO[C@@H](O[C@@H]2O[C@H](CO)[C@@H](O)[C@H](O)[C@H]2O)[C@@H]2C(COC(C)=O)=C[C@H](O)[C@H]12
inconclusive: Potency [14] 14.2 µM [inhibitor, single point] | Potency [2] 8.93 µM [inhibitor, single point] | Potency [8] 11.2 µM [cytotoxic, partial curve, poor fit] | Potency [10] 0.708 µM [cytotoxic, full curve, poor fit]
inactive: max response [3] -2.65% | Potency [5] | Potency [17]

O=C([C@@H]1CCCN(c2ccc3[nH]c(C4(n5cc(Cl)cn5)CC4)nc3n2)C1)N1CCCC1
inactive: Potency [14] | Potency [15] | Potency [5] | Potency [7]
inconclusive: Potency [1] 23.1 µM [inhibitor, partial curve] | Potency [13] 7.28 µM [inhibitor, partial curve, poor fit] | Potency [2] 32.6 µM [inhibitor, single point] | Potency [3] 29.1 µM [inhibitor, single point]

CNC(=O)c1ccc2c(c1)CCO[C@H]2CCN1CCN(c2ccc(OC)cc2)CC1
inconclusive: Potency [3] 29.1 µM [inhibitor, single point]
inactive: Potency [13] | Potency [14] | max response [2] 1.26% | Potency [5] | Potency [17]

C=C1[C@H]2CC[C@H](C(=O)O)[C@@]23CC[C@H](C3)C1(C)C
inactive: Potency [1] | Potency [13] | Potency [14] | Potency [15]
inconclusive: Potency [2] 6.51 µM [inhibitor, single point] | Potency [3] 23.1 µM [inhibitor, single point] | Potency [19] 1.58 µM [cytotoxic, single point]

CC(=O)OC(CSC1CCC(=O)OC(C)CCC(=O)C1)C(=O)O (configuration not stated)
inactive: Potency [13] | Potency [14] | max response [2] -6.05% | outcome [3] | Potency [19] | Potency [11]
